The other results are listed elsewhere or left out. Single values are uncertain, as repeats are few or missing.
Key:
Assay in all cases: cell count relative to DMSO control; melanoma cells; higher = more viable cells
Conditions in all cases: library dose: standard library concentration; 72 h
G361 = tested on: G361
IPC-298 = tested on: IPC-298
IST-MEL1 = tested on: IST-MEL1
LB2518-MEL = tested on: LB2518-MEL
LOXIMVI = tested on: LOXIMVI
MEL-HO = tested on: MEL-HO
MZ2-MEL = tested on: MZ2-MEL
MeWo = tested on: MeWo
RPMI7951 = tested on: RPMI7951
RVH-421 = tested on: RVH-421
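Further: cells treated in 1,536-well plates, then fixed and DAPI-stained, with nuclei counted from automated high-throughput microscope images.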

Structure (SMILES)	cell count (G361) [%]	cell count (IPC-298) [%]	cell count (IST-MEL1) [%]	cell count (LB2518-MEL) [%]	cell count (LOXIMVI) [%]	cell count (MEL-HO) [%]	cell count (MZ2-MEL) [%]	cell count (MeWo) [%]	cell count (RPMI7951) [%]	cell count (RVH-421) [%]
Cc1cc(Nc2cc(N3CCN(C)CC3)nc(Sc3ccc(NC(=O)C4CC4)cc3)n2)n[nH]1 [Tozasertib] + Nc1ncn([C@H]2C[C@H](O)[C@@H](CO)O2)c(=O)n1 [decitabine] (first compound 0.03 µM, partner dose 0.5 µM)	77.1	49.6	66.1	69.3	76.1	73.3	59.4	62	55	65.5
CC[C@]1(O)C[C@H]2CN(CCc3c([nH]c4ccccc34)[C@@](C(=O)OC)(c3cc4c(cc3OC)N(C=O)[C@H]3[C@@](O)(C(=O)OC)[C@H](OC(C)=O)[C@]5(CC)C=CCN6CC[C@]43[C@@H]65)C2)C1 [vincristine] + CO[C@H]1C[C@@H]2CC[C@@H](C)[C@@](O)(O2)C(=O)C(=O)N2CCCC[C@H]2C(=O)O[C@H]([C@H](C)C[C@@H]2CC[C@@H](OCCO)[C@H](OC)C2)CC(=O)[C@H](C)/C=C(\C)[C@@H](O)[C@@H](OC)C(=O)[C@H](C)C[C@H](C)/C=C/C=C/C=C/1C [everolimus] (first compound 0.0005 µM, partner dose 0.1 µM)	60.9	61.7	51.6	65.4	84.6	67.9	73	60.1	56.1	163
CC[C@]1(O)C[C@H]2CN(CCc3c([nH]c4ccccc34)[C@@](C(=O)OC)(c3cc4c(cc3OC)N(C=O)[C@H]3[C@@](O)(C(=O)OC)[C@H](OC(C)=O)[C@]5(CC)C=CCN6CC[C@]43[C@@H]65)C2)C1 [vincristine] + Oc1cc(-c2nc(-c3ccccc3)[nH]c2-c2ccncc2)ccc1Cl [L779450] (first compound 0.0005 µM, partner dose 1 µM)	60.8	78.3	73.5	64.2	77.8	77.5	77.9	32.4	37.9	61.2
Cc1cc(Nc2cc(N3CCN(C)CC3)nc(Sc3ccc(NC(=O)C4CC4)cc3)n2)n[nH]1 [Tozasertib] + Nc1nc(F)nc2c1ncn2[C@@H]1O[C@H](CO)[C@@H](O)[C@@H]1O [fludarabine] (first compound 0.03 µM, partner dose 1 µM)	75.4	68	71.7	84.7	81.3	60.7	77.1	75.1	57	80.4
N#CC[C@H](C1CCCC1)n1cc(-c2ncnc3[nH]ccc23)cn1 [ruxolitinib] + CN1CCN(c2ccc3nc(-c4c(N)c5c(F)cccc5[nH]c4=O)[nH]c3c2)CC1 [Dovitinib] (first compound 5 µM, partner dose 0.5 µM)	53	65.2	75.8	55.9	120	74.8	48.4	48.6	62.3	96.9
Cc1cc(Nc2cc(N3CCN(C)CC3)nc(Sc3ccc(NC(=O)C4CC4)cc3)n2)n[nH]1 [Tozasertib] + C[C@@H](N)c1ccc(C(=O)Nc2ccnc3[nH]ccc23)cc1 [RKI983] (first compound 0.03 µM, partner dose 2 µM)	104	92.6	94.9	79.5	64	50.8	58.8	58.2	93.3	60.5
N#CC[C@H](C1CCCC1)n1cc(-c2ncnc3[nH]ccc23)cn1 [ruxolitinib] + Nc1cccc2c1CN(C1CCC(=O)NC1=O)C2=O [lenalidomide] (first compound 5 µM, partner dose 5 µM)	107	89.9	93.7	138	142	89.3	91.2	95.9	80.1	76
Cc1cc(Nc2cc(N3CCN(C)CC3)nc(Sc3ccc(NC(=O)C4CC4)cc3)n2)n[nH]1 [Tozasertib] + COc1cc(Nc2ncc(F)c(Nc3ccc4c(n3)NC(=O)C(C)(C)O4)n2)cc(OC)c1OC [Tamatinib] (first compound 0.03 µM, partner dose 2 µM)	65.6	85.1	79.7	71	39.5	77.6	65.7	75.8	35.7	81.6
Cc1cc(Nc2cc(N3CCN(C)CC3)nc(Sc3ccc(NC(=O)C4CC4)cc3)n2)n[nH]1 [Tozasertib] + CCc1ccc(CCOc2ccc(CC3SC(=O)NC3=O)cc2)nc1 [pioglitazone] (first compound 0.03 µM, partner dose 10 µM)	77	88	84.7	88.4	82.5	89.6	84	86.4	110	92.9
Cc1cc(Nc2cc(N3CCN(C)CC3)nc(Sc3ccc(NC(=O)C4CC4)cc3)n2)n[nH]1 [Tozasertib] + Cn1cnc2c(F)c(Nc3ccc(Br)cc3Cl)c(C(=O)NOCCO)cc21 [selumetinib] (first compound 0.03 µM, partner dose 0.075 µM)	61.7	45.1	85.3	43.4	101	76.4	40.9	61.5	99.4	147
Cc1cc(Nc2cc(N3CCN(C)CC3)nc(Sc3ccc(NC(=O)C4CC4)cc3)n2)n[nH]1 [Tozasertib] + Nc1cccc2c1CN(C1CCC(=O)NC1=O)C2=O [lenalidomide] (first compound 0.03 µM, partner dose 5 µM)	78.2	86.6	82.8	82.4	88.7	87.5	73	86.4	92.2	77.3
Cc1cc(Nc2cc(N3CCN(C)CC3)nc(Sc3ccc(NC(=O)C4CC4)cc3)n2)n[nH]1 [Tozasertib] + CCN(CC)CCNC(=O)c1c(C)[nH]c(/C=C2\C(=O)Nc3ccc(F)cc32)c1C [sunitinib] (first compound 0.03 µM, partner dose 2 µM)	71.7	56.9	96.3	45.7	162	84	52.6	49.3	66.5	113
N#CC[C@H](C1CCCC1)n1cc(-c2ncnc3[nH]ccc23)cn1 [ruxolitinib] + Cc1cn(-c2cc(NC(=O)c3ccc(C)c(Nc4nccc(-c5cccnc5)n4)c3)cc(C(F)(F)F)c2)cn1 [nilotinib] (first compound 5 µM, partner dose 1 µM)	77	89.3	90.2	126	136	61.7	74.7	83	76.8	89.6
N#CC[C@H](C1CCCC1)n1cc(-c2ncnc3[nH]ccc23)cn1 [ruxolitinib] + COc1cc(N2CCC(N3CCN(C)CC3)CC2)ccc1Nc1ncc(Cl)c(Nc2ccccc2S(=O)(=O)C(C)C)n1 [NVP-TAE684] (first compound 5 µM, partner dose 0.4 µM)	57.4	83.9	88.7	85.9	103	76.1	84.9	58.4	58.9	85.3
N#CC[C@H](C1CCCC1)n1cc(-c2ncnc3[nH]ccc23)cn1 [ruxolitinib] + COc1ccc2c(c1)CCC1C2CCC2(C)C(NCCCCCCN3C(=O)C=CC3=O)CCC12 [U73122] (first compound 5 µM, partner dose 2 µM)	58.9	98.6	88.7	107	77.4	84.4	80.8	46.5	24.1	78.8
CC[C@]1(O)C[C@H]2CN(CCc3c([nH]c4ccccc34)[C@@](C(=O)OC)(c3cc4c(cc3OC)N(C=O)[C@H]3[C@@](O)(C(=O)OC)[C@H](OC(C)=O)[C@]5(CC)C=CCN6CC[C@]43[C@@H]65)C2)C1 [vincristine] + COc1cc(Nc2ncc(F)c(Nc3ccc4c(n3)NC(=O)C(C)(C)O4)n2)cc(OC)c1OC [Tamatinib] (first compound 0.0005 µM, partner dose 2 µM)	19.3	53.2	101	41.6	20.5	48.4	44.8	21.3	14.6	6.67
CC[C@]1(O)C[C@H]2CN(CCc3c([nH]c4ccccc34)[C@@](C(=O)OC)(c3cc4c(cc3OC)N(C=O)[C@H]3[C@@](O)(C(=O)OC)[C@H](OC(C)=O)[C@]5(CC)C=CCN6CC[C@]43[C@@H]65)C2)C1 [vincristine] + Cn1cnc2c(F)c(Nc3ccc(Br)cc3Cl)c(C(=O)NOCCO)cc21 [selumetinib] (first compound 0.0005 µM, partner dose 0.075 µM)	81.5	53.5	81.4	51	102	95.9	55.4	77.2	102	78.1
CC[C@]1(O)C[C@H]2CN(CCc3c([nH]c4ccccc34)[C@@](C(=O)OC)(c3cc4c(cc3OC)N(C=O)[C@H]3[C@@](O)(C(=O)OC)[C@H](OC(C)=O)[C@]5(CC)C=CCN6CC[C@]43[C@@H]65)C2)C1 [vincristine] + OCCn1cc(-c2cnc3nnn(Cc4ccc5ncccc5c4)c3n2)cn1 [PF04217903] (first compound 0.0005 µM, partner dose 5 µM)	106	126	95.9	93.6	108	95.5	117	101	82.9	66.9
Cc1cc(Nc2cc(N3CCN(C)CC3)nc(Sc3ccc(NC(=O)C4CC4)cc3)n2)n[nH]1 [Tozasertib] + C[C@]1(c2nc3c(C(N)=O)cccc3[nH]2)CCCN1 [Veliparib] (first compound 0.03 µM, partner dose 7 µM)	97	90.3	65.6	68.4	56.8	74.8	59.5	74.5	61.6	68.5
Cc1cc(Nc2cc(N3CCN(C)CC3)nc(Sc3ccc(NC(=O)C4CC4)cc3)n2)n[nH]1 [Tozasertib] + COc1ccc(COc2ccc(Cc3cnc(N)nc3N)cc2OC)cc1 [GW2580] (first compound 0.03 µM, partner dose 5 µM)	76.9	81.8	97.9	78.5	78.1	94.4	58.2	72.7	83.8	89.6

Reference: the supplement of paper PMC4604168 (melanoma cell lines)
